Data on 31 sequences can be found in publication PMC12820563.

The list shows a part of the results. The list includes weakly bound sequences.

In the assay the target is T1, MBP-FoxP3dN (UniProt Q99JB6).
T1 sequence: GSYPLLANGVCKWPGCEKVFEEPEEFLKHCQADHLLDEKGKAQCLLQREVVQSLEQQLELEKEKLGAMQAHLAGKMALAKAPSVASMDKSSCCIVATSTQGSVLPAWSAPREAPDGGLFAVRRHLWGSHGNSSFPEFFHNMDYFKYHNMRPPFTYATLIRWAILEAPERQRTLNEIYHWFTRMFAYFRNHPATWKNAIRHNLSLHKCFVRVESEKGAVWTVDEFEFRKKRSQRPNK
As to the kind of experiment: PD-seq (MBP pull-down with sequencing). As to conditions: 20 mM Tris-HCl pH 7.5, 100 mM NaCl, 1.5 mM MgCl2, 0.4 uM protein, 0.1 uM dsDNA library, 30 min, room temperature, amylose pull-down; high values mean tight binding; double strand, one strand shown.
Regarding “GATGATTGTTCTCCCAGCTGATGAATTTCGAGTGTCGAGTAAACAAATTTTCCTAATCTTTCTGTTCAAGCGCCATCTAC”, the binding signal (RPM ratio (pull-down/input)) was 1.08. The same measure for “GATGATTGTTCTCCCAGCTGATGAATTTAGAAGATCGAGTAAACAAATTTTCCTAATCTTTCTGTTCAAGCGCCATCTAC”: 0.245; for “GATGATTGTTCTCCCAGCTGATGAATTCATCACATCGAGTAAACAAATTTTCCTAATCTTTCTGTTCAAGCGCCATCTAC”: 0.842. The figure for “GATGATTGTTCTCCCAGCTGATGAATTTTACACATCGAGTAAACAAATTTTCCTAATCTTTCTGTTCAAGCGCCATCTAC” is 0.439; for “GATGATTGTTCTCCCAGCTGATGAATTTATATATTCGAGTAAACAAATTTTCCTAATCTTTCTGTTCAAGCGCCATCTAC” it is 2.09.

In the case of “GATGATTGTTCTCCCAGCTGATGAATTGACTGGCTCGAGTAAACAAATTTTCCTAATCTTTCTGTTCAAGCGCCATCTAC”, the binding signal (RPM ratio (pull-down/input)) was found to be 0.258.

With “GATGATTGTTCTCCCAGCTGATGAATTTGTGTTCTCGAGTAAACAAATTTTCCTAATCTTTCTGTTCAAGCGCCATCTAC”, the binding signal (RPM ratio (pull-down/input)) came out at 6.29. The same measure for “GATGATTGTTCTCCCAGCTGATGAATTGCCGCAATCGAGTAAACAAATTTTCCTAATCTTTCTGTTCAAGCGCCATCTAC”: 3.46.

Take “GATGATTGTTCTCCCAGCTGATGAATTGTCTTACTCGAGTAAACAAATTTTCCTAATCTTTCTGTTCAAGCGCCATCTAC”: the binding signal (RPM ratio (pull-down/input)) came to 0.469. The figure for “GATGATTGTTCTCCCAGCTGATGAATTCAGTACGTCGAGTAAACAAATTTTCCTAATCTTTCTGTTCAAGCGCCATCTAC” is 0.522; for “GATGATTGTTCTCCCAGCTGATGAATTAGACTTCTCGAGTAAACAAATTTTCCTAATCTTTCTGTTCAAGCGCCATCTAC” it is 0.433; for “GATGATTGTTCTCCCAGCTGATGAATTCCTATTATCGAGTAAACAAATTTTCCTAATCTTTCTGTTCAAGCGCCATCTAC” it is 0.622. As to “GATGATTGTTCTCCCAGCTGATGAATTTACTCTTTCGAGTAAACAAATTTTCCTAATCTTTCTGTTCAAGCGCCATCTAC”, the binding signal (RPM ratio (pull-down/input)) amounted to 0.399. For the sequence “GATGATTGTTCTCCCAGCTGATGAATTGAATGTGTCGAGTAAACAAATTTTCCTAATCTTTCTGTTCAAGCGCCATCTAC”, the binding signal (RPM ratio (pull-down/input)) came out at 1.26. The figure for “GATGATTGTTCTCCCAGCTGATGAATTAGGTTACTCGAGTAAACAAATTTTCCTAATCTTTCTGTTCAAGCGCCATCTAC” is 1.43. Turning to “GATGATTGTTCTCCCAGCTGATGAATTGCAGCGATCGAGTAAACAAATTTTCCTAATCTTTCTGTTCAAGCGCCATCTAC”, the binding signal (RPM ratio (pull-down/input)) was determined as 0.779. The same measure for “GATGATTGTTCTCCCAGCTGATGAATTCCTGCTCTCGAGTAAACAAATTTTCCTAATCTTTCTGTTCAAGCGCCATCTAC”: 0.293; for “GATGATTGTTCTCCCAGCTGATGAATTTTTGAAATCGAGTAAACAAATTTTCCTAATCTTTCTGTTCAAGCGCCATCTAC”: 0.346; for “GATGATTGTTCTCCCAGCTGATGAATTGCGAGGCTCGAGTAAACAAATTTTCCTAATCTTTCTGTTCAAGCGCCATCTAC”: 0.762.

For the sequence “GATGATTGTTCTCCCAGCTGATGAATTCCACAATTCGAGTAAACAAATTTTCCTAATCTTTCTGTTCAAGCGCCATCTAC”, the binding signal (RPM ratio (pull-down/input)) came to 0.368. The figure for “GATGATTGTTCTCCCAGCTGATGAATTAAACGTTTCGAGTAAACAAATTTTCCTAATCTTTCTGTTCAAGCGCCATCTAC” is 0.472; for “GATGATTGTTCTCCCAGCTGATGAATTTCATGCATCGAGTAAACAAATTTTCCTAATCTTTCTGTTCAAGCGCCATCTAC” it is 1.04. The same measure for “GATGATTGTTCTCCCAGCTGATGAATTAAAAGTTTCGAGTAAACAAATTTTCCTAATCTTTCTGTTCAAGCGCCATCTAC”: 0.273; for “GATGATTGTTCTCCCAGCTGATGAATTCTTGGTTTCGAGTAAACAAATTTTCCTAATCTTTCTGTTCAAGCGCCATCTAC”: 0.427; for “GATGATTGTTCTCCCAGCTGATGAATTAGAGCCATCGAGTAAACAAATTTTCCTAATCTTTCTGTTCAAGCGCCATCTAC”: 1.14. The figure for “GATGATTGTTCTCCCAGCTGATGAATTGCGAGTGTCGAGTAAACAAATTTTCCTAATCTTTCTGTTCAAGCGCCATCTAC” is 1.6; for “GATGATTGTTCTCCCAGCTGATGAATTGTAGGTGTCGAGTAAACAAATTTTCCTAATCTTTCTGTTCAAGCGCCATCTAC” it is 0.898; for “GATGATTGTTCTCCCAGCTGATGAATTCTTTTTTTCGAGTAAACAAATTTTCCTAATCTTTCTGTTCAAGCGCCATCTAC” it is 0.311. Regarding “GATGATTGTTCTCCCAGCTGATGAATTGACGATATCGAGTAAACAAATTTTCCTAATCTTTCTGTTCAAGCGCCATCTAC”, the binding signal (RPM ratio (pull-down/input)) stood at 0.549. The same measure for “GATGATTGTTCTCCCAGCTGATGAATTGCGTGTATCGAGTAAACAAATTTTCCTAATCTTTCTGTTCAAGCGCCATCTAC”: 2.58. With “GATGATTGTTCTCCCAGCTGATGAATTACTTAGCTCGAGTAAACAAATTTTCCTAATCTTTCTGTTCAAGCGCCATCTAC”, the binding signal (RPM ratio (pull-down/input)) came to 0.257.
